Certain results were filed several times, with different values. The other results are left out here. The calls were made as follows: active = hit-call score of the fitted dose curve at least 0.9, where 1 is the maximum; inactive = score below 0.9. There may be further records. The values listed for one entry are repeats in other runs, samples, wells, individuals or studies. The source holds several records for some structures; these can differ, active in one and inactive in another.
Assays:
[1] = molecular target: Aryl hydrocarbon receptor (Homo sapiens) (UniProt P35869); assay: ATG_Ahr_CIS: Attagene CIS-FACTORIAL HepG2 Assay for human Aryl Hydrocarbon Receptor (Ahr) (AID 2282930); conditions: HepG2 AhR cis-factorial reporter transcription; actives raise or lower the signal
Outline: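 Following 24 h of chemical dosing, transfected HepG2 liver cells with cis-driven reporter units were lysed for RNA; reporter mRNA was quantified via RT-PCR and capillary electrophoresis, and responses fitted bidirectionally from DMSO.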

[2] = ATG_EGR_CIS: Attagene CIS-FACTORIAL HepG2 Assay for human Early Growth Response 1 (EGR1) (AID 2282938); conditions: HepG2 Attagene CIS-FACTORIAL EGR reporter mRNA; actives raise or lower the signal
Outline: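 Endogenous TF activity in HepG2 liver cells was gauged through cis-promoter reporter constructs transiently transfected. After 24 h dosing, reporter mRNA was quantified by RT-PCR and capillary electrophoresis, and curves fitted in both directions versus DMSO.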

[3] = ATG_MRE_CIS: Attagene CIS-FACTORIAL HepG2 Assay for human Metal Responsive Element (MRE) (AID 2282954); conditions: HepG2 MRE cis-reporter transcription, Attagene multiplex; actives raise or lower the signal
Method: ATG_CIS is a cell-based, multiplexed-readout assay that uses HepG2, a human liver cell line, with measurements taken at 24 hours after chemical dosing in a 24-well plate.ATG_MRE_CIS is one of 52 assay component(s) measured or calculated from the ATG_CIS assay. It is designed to make measurements of mRNA induction, a form of inducible reporter, as detected with fluorescence intensity signals by Reverse transcription polymerase chain reaction (RT-PCR) and Capillary electrophoresis technology.Data from the assay component ATG_MRE_CIS was analyzed into 1 assay endpoint. This assay endpoint, ATG_MRE_CIS, was analyzed with bidirectional fitting relative to DMSO as the negative control and baseline of activity. […] Furthermore, this assay endpoint can be referred to as a primary readout, because this assay has produced multiple assay endpoints where this one serves a reporter gene function. […]
Human liver HepG2 cells are transiently transfected with multiple reporter transcription units (MRTUs) in 6-well plates using FuGene 6 reagent (Roche; 3 ml FuGene/1 mg DNA). […] A major difference between the CIS and TRANS system is that in CIS activities of endogenous TFs are measured, whereas the TRANS assay evaluates changes in activities of exogenous, chimeric NR-Gal4 proteins. […]

[4] = ATG_PPRE_CIS: Attagene CIS-FACTORIAL HepG2 Assay for human Peroxisome Proliferator-activated Response Element (PPRE) (AID 2282958); conditions: HepG2 PPRE cis-element reporter, Attagene transcription factor profiling; actives raise or lower the signal
Outline: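 Cells are first transfected transiently with the multiplexed reporter library, then dosed for 24 h. Total RNA is reverse-transcribed, amplified, fluorescently end-labeled and HpaI-cut before capillary electrophoresis; activity is fitted bidirectionally against DMSO controls.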

UniProt P35869, sequence (P35869 whole entry, looked up): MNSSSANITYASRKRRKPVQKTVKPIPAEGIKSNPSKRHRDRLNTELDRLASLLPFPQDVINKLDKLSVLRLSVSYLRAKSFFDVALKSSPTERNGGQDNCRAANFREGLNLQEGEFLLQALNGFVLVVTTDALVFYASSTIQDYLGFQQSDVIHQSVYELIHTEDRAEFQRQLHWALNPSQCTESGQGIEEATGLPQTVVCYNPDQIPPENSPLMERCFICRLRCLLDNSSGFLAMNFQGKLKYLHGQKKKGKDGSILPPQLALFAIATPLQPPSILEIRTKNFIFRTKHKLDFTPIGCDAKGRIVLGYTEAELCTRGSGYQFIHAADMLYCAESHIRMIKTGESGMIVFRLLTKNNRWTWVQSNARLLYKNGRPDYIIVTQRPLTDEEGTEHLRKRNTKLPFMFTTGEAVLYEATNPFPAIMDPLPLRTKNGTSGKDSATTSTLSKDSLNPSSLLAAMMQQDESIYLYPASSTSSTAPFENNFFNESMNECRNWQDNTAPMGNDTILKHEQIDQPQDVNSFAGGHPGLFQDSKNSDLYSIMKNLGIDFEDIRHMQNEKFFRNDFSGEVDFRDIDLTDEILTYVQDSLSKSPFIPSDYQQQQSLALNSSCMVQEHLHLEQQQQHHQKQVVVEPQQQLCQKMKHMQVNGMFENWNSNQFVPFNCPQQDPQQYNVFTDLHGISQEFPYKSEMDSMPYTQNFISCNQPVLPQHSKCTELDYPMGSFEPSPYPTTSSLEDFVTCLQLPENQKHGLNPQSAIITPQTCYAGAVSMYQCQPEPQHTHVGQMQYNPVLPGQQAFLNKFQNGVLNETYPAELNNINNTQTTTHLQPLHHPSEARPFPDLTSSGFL

OCc1c[nH]c2ccccc12
AC50 [1]: active: 486, 385, 281, 196, 52.8 nM [separate samples]
AC50 [2]: active: 8.35, 8.05, 32.8, 7.33 µM [separate samples]
AC50 [3]: active: 8.28, 9.3, 36.6, 26.8, 8.36 µM [separate samples]
AC50 [4]: active: 20.4, 19.8, 22.7, 100, 45 µM [separate samples]

From PubChem BioAssay (EPA / NIEHS)
